Measured values published in the supplement of paper PMC11417369.
± gives the standard deviation of the averaged measurements. Some of the results follow.

tested on: PfAP2-I AP2 domain 3 (GST-tagged); assay: gcPBM binding intensity (ln(normalized median fluorescence intensity)); higher = stronger DNA binding
Procedure, shortened: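 Binding intensity is defined as the maximum Masliner-normalised natural-log median intensity across replicate spots for either probe orientation. It was measured on an Agilent 4 × 180k array of primer-extended double-stranded 36-bp intergenic genomic probes and negative controls, to which GST-tagged P. falciparum DNA-binding domains made in E. coli were applied for 1 h in 1× PBS with 1% milk, 0.2 mg/ml BSA, 0.5% salmon testes DNA and 0.03% Triton X-100. Detection was by Alexa488 anti-GST antibody and scanning at 488 nm.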

Sequence	gcPBM binding intensity (ln)
ATATATTTATTATTAGGTACACATATATATATATAT [XGTACX_site5045]	9.23 ± 0.23
TGTAGTAATGCTTATTGTACATATACATTTCTTACA [XGTACX_site219]	7.79 ± 0.46
TTATATAGAATTAATTTCTTTTTTTTCTTTTTTAAA [CACACA_negctrl_site1308]	7.24 ± 0.54
AACCACCACACCATCACACATAAGATTAGACGAGTA [CACACA_site6063]	8.03 ± 0.48
TCTAATGATATATACACACACATATAGATTTATATA [CACACA_site7044]	7.75 ± 0.33
ATTTTTCTAAAATACTGTACAAAGGTGCATAAAAAG [XGTACX_site4425]	11.8 ± 0.87
TTTTCTGTTTTCATTACACACCTTACAAGAACAATA [CACACA_site2158]	8.34 ± 0.52
ATATTTATGGAATATACACACATGTATAATTATATA [CACACA_site2033]	7.67 ± 0.51
TGCTTTTCTTTTTGCACACTTATGCATATATATATA [CACACA_site2583]	10.46 ± 0.014
AAATAAGAAAAAGCGCGTACACATAACATTTTTATA [XGTACX_site8807]	7.82 ± 0.54
TTTATTCAAGGAATAGTGCATAATAATAAGTATTAT	11.2 ± 0.62
TGTATTCTCTTAGTAGTGCATTTGAAGATTATATAA	10.1 ± 0.37
TAGAATATGTTTAGTTGTACAAAACAAAATGGAATT [XGTACX_site5293]	7.76 ± 0.59
ATTTATTTTTTGTGTTCACACATTAGTATCATCTAT [CACACA_site5274]	7.68 ± 0.57
CACATAAAAAAATAAACACACATATGTATATATATA [CACACA_site3177]	8.8 ± 0.18
ACTTTTTTGAACAACGTGCACGTATTCATAACAAAA	9.61 ± 0.38
ATCAGATATATATATTGTACATTTATATATAAATCA [XGTACX_site1960]	7.61 ± 0.44
ATTAAAAATTATATTTTATAAAAATTAAAAGAAATA [CACACA_negctrl_site65]	7.57 ± 0.35
ATAGGATGTTTGCACTGTACCAAAAAATGAGCTGCA [XGTACX_site2825]	9.88 ± 0.32
ATTTATTTATCTAGCTATTCACCATTTTCTTTTGTT [CACACA_negctrl_site1259]	7.78 ± 0.54
AAAGTATACAATGACGCATGCATATATATATACATA [TGCATGCA_site429]	7.52 ± 0.64
TTTTTTAAAGCCTGTTCATCATCCTTACCTATCAAC [GTGCAC_negctrl_site452]	7.84 ± 0.65
TATTTTTTCTTAAACACACACATATAGATTTATAAC [CACACA_site7354]	7.89 ± 0.48

Sequence	gcPBM binding intensity (ln)
TGTCCTTATTGGCACACACACATATAAGAAATTTAA [CACACA_site5724]	8.45 ± 0.071
ACCCTATTTATATATACACACACATATATAAATAAA [CACACA_site8980]	8.24 ± 0.36
CTAATTCGTATATGCTGTACCTTTTTCTTACGACTA [XGTACX_site4392]	8.15 ± 0.74
ATATGGAATGATCATAGTACATAATTTAAAATTTTA [XGTACX_site3568]	7.52 ± 0.59
AACATATATAATATTTGTACTTATATACAAAATATG [XGTACX_site7502]	7.53 ± 0.28
AAAATTGTGAAAGGGAAGATGATCAAATTGTTAAGG [CACACA_negctrl_site1492]	7.71 ± 0.79
GATGGGCAAATTTACTGTACTTTTATAATATTTTTT [XGTACX_site4830]	8.14 ± 0.53
TATAATGGTAAAAACACACAAATATGAAGATGTTAA [CACACA_site6479]	7.51 ± 0.61
GTACCTATAAATATTACACACATTTTCATTTTTAAC [CACACA_site7022]	8.3 ± 0.48
AAAAAAAATTATATTTGTACGCATTAAAAAATCTAA [XGTACX_site1616]	7.64 ± 0.26
CTTAAAAACAAAAATGCACACATAATAAGCATATGT [CACACA_site9149]	8.46 ± 0.13
TGAAATTAGATATATACACACATATAGATTTATATG [CACACA_site7619]	7.47 ± 0.51
ATTAAACTCATTAAGAGTACAGATAACATTAAAGTA [XGTACX_site8697]	7.68 ± 0.51
ATAAATACGATTAATTAGGTTTGTATAAATTAAATT [GTGCAC_negctrl_site635]	7.5 ± 0.47
AATATCACATTCCACGGTACACACTAAAAGAAAAAT [XGTACX_site7653]	8.28 ± 0.5
ATAACTTTTGCGCGTACACACATTTATCCTCTTTAT [CACACA_site209]	8.63 ± 0.66
TCATGTAGTAAAAACTGTACAAATTATTTATCATGT [XGTACX_site1727]	7.74 ± 0.56
TTTCATTTTAGAAGTACACACAAAAAATAAAATAAT [CACACA_site2141]	8.21 ± 0.2
CTATAATAGAAGTGTACACACATATTTATGTCTGTA [CACACA_site7462]	7.7 ± 0.33
TTTTCTTTATTATAATGTACTCACAAATAAATATAA [XGTACX_site7298]	7.96 ± 0.38
ATAAATTGATTCAACACACACATATGTAGGAAGTTA [CACACA_site3253]	7.66 ± 0.51
AAAAAAAAAAAAAGTACACACATACAGATAAATATA [CACACA_site5067]	8.19 ± 0.014
TTTTTTAAATTGGTAGTGCAATATGATTGAACAAAA [GTGCAC_site9715]	10.9 ± 0.79

Sequence	gcPBM binding intensity (ln)
GGGTATACCAATATAACACACATATATATATAATAT [CACACA_site450]	7.93 ± 0.54
AAATTATTAAAAAAGTGTACATATTTTTATAATACC [XGTACX_site5610]	8.04 ± 0.45
ATAAGCATACATATTACACACATATAACATCTATAT [CACACA_site7219]	7.93 ± 0.66
TATTTTTTTTCAAAAAAGTTTATTTAGAACTAAATA [XGTACX_negctrl_site487]	7.18 ± 0.46
TTAATCAAATTACTATGTACATAAAACATATAAGAA [XGTACX_site381]	7.75 ± 0.54
ATAGTTAAAAAAAAAAAAAAAAAAAAAAGAGAGAGA [CACACA_negctrl_site1307]	8.16 ± 0.36
ACAATAAAGAACAGTATGCACTTTTATGCATGCGTA	10.4 ± 0.24
AAATATACATACATATGTACATATATATATATATAT [XGTACX_site8202]	9.43 ± 0.76
CTTTTTCTTTTCCGGCGTACAGACTTAGTAGTAGAT [XGTACX_site2268]	8.34 ± 0.39
ACTAATACATAAAAAAGTACAAATATGAGTATTAAC [XGTACX_site7281]	7.78 ± 0.6
AATATTCAATATAAAGTGCATTATTGTGGACCTAAT	11.3 ± 0.65
TATATAGCTAAAAACACACAAATATGTACACATAAA [CACACA_site7665]	7.79 ± 0.37
TACATGCAAAAAATTCCACACACACCCCCACATATA [CACACA_site8329]	9.27 ± 0.15
TAAAATATAGGAAATACATGCATATTAAATATTCCT [TGCATGCA_site1057]	7.71 ± 0.57
TACTTCATTCATTTTACACACATATAAACCCTTTTA [CACACA_site3229]	8.03 ± 0.58
TAGAAAATCAGTTAAACACACACATAAAAAAAAAAA [CACACA_site8933]	8.06 ± 0.68
TTCTTATTTGTACTAGTGCAATAGAAAATAAATAAA [GTGCAC_site9731]	10.9 ± 0.49
TATATAATATATATATGTACACATTTGCAAACAATG [XGTACX_site6941]	8.26 ± 0.26
ATGAATTAATCTAATCGTACAATAAGCATTATTATA [XGTACX_site2571]	7.49 ± 0.47
GAATATGTAAAGAAAGGTACACATGAAAATATGTGT [XGTACX_site446]	7.71 ± 0.66
TGTACCTACAAAATATGATATATTTTTATAAATTGT [XGTACX_negctrl_site498]	7.71 ± 0.16
TATATATATATACATACATGCATATATATATATATA [TGCATGCA_site513]	9.34 ± 0.45
AATACAATAAAAAAAAGTACACATGTATAAAAAATT [XGTACX_site8270]	8.21 ± 0.39

Sequence	gcPBM binding intensity (ln)
AATATATCTTATTTAACACACACAAAGAAAATAGAA [CACACA_site9242]	8.35 ± 0.28
TGTTATCAGAAAGCACGTACATATAATTATATATTC [XGTACX_site4188]	8.35 ± 0.45
TTACAAGTAAAAGGTACACACATTATAAATACAAAT [CACACA_site4752]	8.04 ± 0.63
AAGAAAGACATTACGTGTACCAAACAACCTACCAAC [XGTACX_site4219]	8.22 ± 0.25
AAAATTAAACTCACACCACACACAAAAAAAAAAAAA [CACACA_site8131]	8.07 ± 0.53
ATGTATATGTCTATATGTACTTATATTTTATTTTTT [XGTACX_site5902]	7.58 ± 0.38
TGTTTTATCTTATATGCACACGATAAAAAAAAAAAA [CACACA_site2674]	9.55 ± 0.17
ACATAAATATAAACGTGTACATATATAAATATATAT [XGTACX_site7293]	8.06 ± 0.26
CATATATAAAAAAACACACACATATATATATATATA [CACACA_site1195]	9.35 ± 0.47
ATATATTTTAATTGTTGTACATATTAAATAAATAGG [XGTACX_site2311]	7.75 ± 0.25
ATTTTTTTTTTTTATAGTGGATCCACATTTGCCATT [CACACA_negctrl_site1284]	7.86 ± 0.81
TATATTTTATATATGGTGCAACTTTTATTTAAATAA	9.4 ± 0.16
AGTTTTTATAAAAATAGTACATATTTATTAATCTGT [XGTACX_site5881]	7.66 ± 0.39
CCCACAGACGGACACACACACACACCGACACATATA [CACACA_site4356]	8.52 ± 0.071
TTTTGTGCTTAAAAAAGTACAAAATATAAAAAAAAT [XGTACX_site7876]	9.03 ± 0.36
TGCAGTCTGGAGAAACGTACACAGTATCTGGTAACC [XGTACX_site2543]	7.67 ± 0.74
TTCTATTTTAATATCTGTACATAATAAAGATCCATT [XGTACX_site1142]	7.86 ± 0.4
AAAATTGAACCTGACAAGGTATTTTATTATTTATTA [TGCATGCA_negctrl_site181]	7.22 ± 0.55
TGAGTACACAATAATACATGCAATTCCTATGAATAT [TGCATGCA_site851]	7.8 ± 0.33
ATAAATATTAAAAGTACACACAGATACACTAATTAT [CACACA_site1808]	7.92 ± 0.52
ATATGACATAAAACATGTACATGTTCATAAATATAT [XGTACX_site1923]	7.89 ± 0.47
